Test results as given in the supplement of paper PMC8728848.
The list shows a part of the results.

How the values were obtained:
Assay in all cases: glycan array binding signal (z-score within array); higher = stronger binding
Details in all cases: glycan notation: IUPAC condensed, linker removed
[1] = target: GlcNAc(a1-6)Gal(b1-4)GlcNAc
Method in brief: (§1)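 The Consortium for Functional Glycomics database supplied 3228 glycan arrays, of which those lacking an available protein sequence were dropped. The binding signal, a within-array Z-score, was averaged across arrays of the same protein sequence and across linkers. Negative scores can be read as non-binding.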

[2] = target: GlcNAc(b1-2)Gal(b1-3)GalNAc
Method in brief: as §1

[3] = target: GlcNAc(b1-2)Man(a1-3)[GlcNAc(b1-2)Man(a1-6)]Man(b1-4)GlcNAc(b1-4)GlcNAc
Method in brief: as §1

[4] = target: GlcNAc(b1-2)Man(a1-3)[GlcNAc(b1-2)Man(a1-6)]Man(b1-4)GlcNAc(b1-4)[Fuc(a1-6)]GlcNAc
Method in brief: as §1

[5] = target: GlcNAc(b1-2)Man(a1-3)[GlcNAc(b1-4)][GlcNAc(b1-2)Man(a1-6)]Man(b1-4)GlcNAc(b1-4)GlcNAc
Method in brief: as §1

[6] = target: GlcNAc(b1-2)Man(a1-3)[GlcNAc(b1-4)][GlcNAc(b1-2)Man(a1-6)]Man(b1-4)GlcNAc(b1-4)[Fuc(a1-6)]GlcNAc
Method in brief: as §1

[7] = target: GlcNAc(b1-2)[GlcNAc(b1-4)]Man(a1-3)[GlcNAc(b1-2)Man(a1-6)]Man(b1-4)GlcNAc(b1-4)GlcNAc
Method in brief: as §1

[8] = target: GlcNAc(b1-2)[GlcNAc(b1-4)]Man(a1-3)[GlcNAc(b1-4)][GlcNAc(b1-2)Man(a1-6)]Man(b1-4)GlcNAc(b1-4)GlcNAc
Method in brief: as §1

[9] = target: GlcNAc(b1-2)[GlcNAc(b1-4)]Man(a1-3)[GlcNAc(b1-4)][GlcNAc(b1-2)[GlcNAc(b1-6)]Man(a1-6)]Man(b1-4)GlcNAc(b1-4)GlcNAc
Method in brief: as §1

[10] = target: GlcNAc(b1-2)[GlcNAc(b1-4)]Man(a1-3)[GlcNAc(b1-4)][GlcNAc(b1-2)[GlcNAc(b1-6)]Man(a1-6)]Man(b1-4)GlcNAc(b1-4)[Fuc(a1-6)]GlcNAc
Method in brief: as §1

[11] = target: GlcNAc(b1-2)[GlcNAc(b1-6)]Man(a1-6)[GlcNAc(b1-2)Man(a1-3)]Man(b1-4)GlcNAc(b1-4)GlcNAc
Method in brief: as §1

[12] = target: GlcNAc(b1-2)[GlcNAc(b1-6)]Man(a1-6)[GlcNAc(b1-2)Man(a1-3)]Man(b1-4)GlcNAc(b1-4)[Fuc(a1-6)]GlcNAc
Method in brief: as §1

[13] = target: GlcNAc(b1-2)[GlcNAc(b1-6)]Man(a1-6)[GlcNAc(b1-4)][GlcNAc(b1-2)Man(a1-3)]Man(b1-4)GlcNAc(b1-4)GlcNAc
Method in brief: as §1

GlcNAc(b1-3)Fuc = target: GlcNAc(b1-3)Fuc
Method in brief: as §1

GlcNAc(b1-3)Gal = target: GlcNAc(b1-3)Gal
Method in brief: as §1

[14] = target: GlcNAc(b1-3)Gal(b1-3)GalNAc
Method in brief: as §1

GlcNAc(b1-3)Gal(b1-4)Glc = target: GlcNAc(b1-3)Gal(b1-4)Glc
Method in brief: as §1

[15] = target: GlcNAc(b1-3)Gal(b1-4)GlcNAc
Method in brief: as §1

[16] = target: GlcNAc(b1-3)Gal(b1-4)GlcNAc(b1-2)Man(a1-3)[GlcNAc(b1-3)Gal(b1-4)GlcNAc(b1-2)Man(a1-6)]Man(b1-4)GlcNAc(b1-4)GlcNAc
Method in brief: as §1

[17] = target: GlcNAc(b1-3)Gal(b1-4)GlcNAc(b1-2)Man(a1-3)[GlcNAc(b1-3)Gal(b1-4)GlcNAc(b1-2)Man(a1-6)]Man(b1-4)GlcNAc(b1-4)[Fuc(a1-6)]GlcNAc
Method in brief: as §1

[18] = target: GlcNAc(b1-3)Gal(b1-4)GlcNAc(b1-2)[GlcNAc(b1-3)Gal(b1-4)GlcNAc(b1-6)]Man(a1-6)[GlcNAc(b1-3)Gal(b1-4)GlcNAc(b1-2)Man(a1-3)]Man(b1-4)GlcNAc(b1-4)GlcNAc
Method in brief: as §1

[19] = target: GlcNAc(b1-3)Gal(b1-4)GlcNAc(b1-3)Gal(b1-4)GlcNAc
Method in brief: as §1

[20] = target: GlcNAc(b1-3)Gal(b1-4)GlcNAc(b1-3)Gal(b1-4)GlcNAc(b1-2)Man(a1-3)[GlcNAc(b1-3)Gal(b1-4)GlcNAc(b1-3)Gal(b1-4)GlcNAc(b1-2)Man(a1-6)]Man(b1-4)GlcNAc(b1-4)GlcNAc
Method in brief: as §1

[21] = target: GlcNAc(b1-3)Gal(b1-4)GlcNAc(b1-3)Gal(b1-4)GlcNAc(b1-2)Man(a1-3)[GlcNAc(b1-3)Gal(b1-4)GlcNAc(b1-3)Gal(b1-4)GlcNAc(b1-2)Man(a1-6)]Man(b1-4)GlcNAc(b1-4)[Fuc(a1-6)]GlcNAc
Method in brief: as §1

[22] = target: GlcNAc(b1-3)Gal(b1-4)GlcNAc(b1-3)Gal(b1-4)GlcNAc(b1-2)[GlcNAc(b1-3)Gal(b1-4)GlcNAc(b1-3)Gal(b1-4)GlcNAc(b1-6)]Man(a1-6)[GlcNAc(b1-3)Gal(b1-4)GlcNAc(b1-3)Gal(b1-4)GlcNAc(b1-2)Man(a1-3)]Man(b1-4)GlcNAc(b1-4)[Fuc(a1-6)]GlcNAc
Method in brief: as §1

[23] = target: GlcNAc(b1-3)Gal(b1-4)GlcNAc(b1-3)Gal(b1-4)GlcNAc(b1-3)Gal(b1-4)GlcNAc(b1-2)Man(a1-3)[GlcNAc(b1-3)Gal(b1-4)GlcNAc(b1-3)Gal(b1-4)GlcNAc(b1-3)Gal(b1-4)GlcNAc(b1-2)Man(a1-6)]Man(b1-4)GlcNAc(b1-4)GlcNAc
Method in brief: as §1

[24] = target: GlcNAc(b1-3)Gal(b1-4)GlcNAc(b1-3)Gal(b1-4)GlcNAc(b1-3)Gal(b1-4)GlcNAc(b1-2)Man(a1-3)[GlcNAc(b1-3)Gal(b1-4)GlcNAc(b1-3)Gal(b1-4)GlcNAc(b1-3)Gal(b1-4)GlcNAc(b1-2)Man(a1-6)]Man(b1-4)GlcNAc(b1-4)[Fuc(a1-6)]GlcNAc
Method in brief: as §1

[25] = target: GlcNAc(b1-3)Gal(b1-4)GlcNAc(b1-3)Gal(b1-4)GlcNAc(b1-3)Gal(b1-4)GlcNAc(b1-2)[GlcNAc(b1-3)Gal(b1-4)GlcNAc(b1-3)Gal(b1-4)GlcNAc(b1-3)Gal(b1-4)GlcNAc(b1-6)]Man(a1-6)[GlcNAc(b1-3)Gal(b1-4)GlcNAc(b1-3)Gal(b1-4)GlcNAc(b1-3)Gal(b1-4)GlcNAc(b1-2)Man(a1-3)]Man(b1-4)GlcNAc(b1-4)[Fuc(a1-6)]GlcNAc
Method in brief: as §1

[26] = target: GlcNAc(b1-3)Gal(b1-4)GlcNAc(b1-3)Gal(b1-4)GlcNAc(b1-3)Gal(b1-4)GlcNAc(b1-3)Gal(b1-4)GlcNAc(b1-2)Man(a1-3)[GlcNAc(b1-3)Gal(b1-4)GlcNAc(b1-3)Gal(b1-4)GlcNAc(b1-3)Gal(b1-4)GlcNAc(b1-3)Gal(b1-4)GlcNAc(b1-2)Man(a1-6)]Man(b1-4)GlcNAc(b1-4)GlcNAc
Method in brief: as §1

[27] = target: GlcNAc(b1-3)Gal(b1-4)GlcNAc(b1-3)Gal(b1-4)GlcNAc(b1-3)Gal(b1-4)GlcNAc(b1-3)Gal(b1-4)GlcNAc(b1-2)Man(a1-3)[GlcNAc(b1-3)Gal(b1-4)GlcNAc(b1-3)Gal(b1-4)GlcNAc(b1-3)Gal(b1-4)GlcNAc(b1-3)Gal(b1-4)GlcNAc(b1-2)Man(a1-6)]Man(b1-4)GlcNAc(b1-4)[Fuc(a1-6)]GlcNAc
Method in brief: as §1

[28] = target: GlcNAc(b1-3)Gal(b1-4)GlcNAc(b1-3)Gal(b1-4)GlcNAc(b1-3)Gal(b1-4)GlcNAc(b1-3)Gal(b1-4)GlcNAc(b1-2)[GlcNAc(b1-3)Gal(b1-4)GlcNAc(b1-3)Gal(b1-4)GlcNAc(b1-3)Gal(b1-4)GlcNAc(b1-3)Gal(b1-4)GlcNAc(b1-6)]Man(a1-6)[GlcNAc(b1-3)Gal(b1-4)GlcNAc(b1-3)Gal(b1-4)GlcNAc(b1-3)Gal(b1-4)GlcNAc(b1-3)Gal(b1-4)GlcNAc(b1-2)Man(a1-3)]Man(b1-4)GlcNAc(b1-4)[Fuc(a1-6)]GlcNAc
Method in brief: as §1

[29] = target: GlcNAc(b1-3)Gal(b1-4)GlcNAc(b1-3)Gal(b1-4)GlcNAc(b1-3)GalNAc
Method in brief: as §1

[30] = target: GlcNAc(b1-3)Gal(b1-4)GlcNAc(b1-3)GalNAc
Method in brief: as §1

[31] = target: GlcNAc(b1-3)Gal(b1-4)GlcNAc(b1-3)[GlcNAc(b1-3)Gal(b1-4)GlcNAc(b1-3)]GalNAc
Method in brief: as §1

[32] = target: GlcNAc(b1-3)Gal(b1-4)GlcNAc(b1-6)[Gal(b1-3)]GalNAc
Method in brief: as §1

[33] = target: GlcNAc(b1-3)Gal(b1-4)GlcNAc(b1-6)[GlcNAc(b1-3)Gal(b1-3)]GalNAc
Method in brief: as §1

[34] = target: GlcNAc(b1-3)Gal(b1-4)GlcNAc(b1-6)[GlcNAc(b1-3)]Gal(b1-4)GlcNAc
Method in brief: as §1

GlcNAc(b1-3)GalNAc = target: GlcNAc(b1-3)GalNAc
Method in brief: as §1

GlcNAc(b1-3)Man = target: GlcNAc(b1-3)Man
Method in brief: as §1

[35] = target: GlcNAc(b1-3)[GlcNAc(b1-4)][GlcNAc(b1-6)]GlcNAc
Method in brief: as §1

[36] = target: GlcNAc(b1-3)[GlcNAc(b1-6)]Gal(b1-4)GlcNAc
Method in brief: as §1

[37] = target: GlcNAc(b1-3)[GlcNAc(b1-6)]GalNAc
Method in brief: as §1

[38] = target: GlcNAc(b1-4)Gal(b1-4)GlcNAc
Method in brief: as §1

GlcNAc(b1-4)GlcNAc = target: GlcNAc(b1-4)GlcNAc
Method in brief: as §1

[39] = target: GlcNAc(b1-4)GlcNAc(b1-4)GlcNAc
Method in brief: as §1

B1: Gal 3C (Homo sapiens), P17931 (protein)
chain: YGAPAGPLIVPYNLPLPGGVVPRMLITILGTVKPNANRIALDFQRGNDVAFHFNPRFNENNRRVIVCNTKLDNNWGREERQSVFPFESGKPFKIQVLVEPDHFKVAVNDAHLLQYNHRVKKLNEISKLGISGDIDLTSASYTMI
glycan array binding signal (z-score) [1]: -0.304 | glycan array binding signal (z-score) [2]: -0.232 | glycan array binding signal (z-score) [3]: -0.279 | glycan array binding signal (z-score) [4]: -0.196 | glycan array binding signal (z-score) [5]: -0.312 | glycan array binding signal (z-score) [6]: -0.313 | glycan array binding signal (z-score) [7]: -0.323 | glycan array binding signal (z-score) [8]: -0.294 | glycan array binding signal (z-score) [9]: -0.311 | glycan array binding signal (z-score) [10]: -0.344 | glycan array binding signal (z-score) [11]: -0.283 | glycan array binding signal (z-score) [12]: -0.222 | glycan array binding signal (z-score) [13]: -0.357 | glycan array binding signal (z-score) (GlcNAc(b1-3)Fuc): -0.194 | glycan array binding signal (z-score) (GlcNAc(b1-3)Gal): -0.261 | glycan array binding signal (z-score) [14]: -0.333 | glycan array binding signal (z-score) (GlcNAc(b1-3)Gal(b1-4)Glc): -0.318 | glycan array binding signal (z-score) [15]: -0.194 | glycan array binding signal (z-score) [16]: 0.466 | glycan array binding signal (z-score) [17]: 0.418 | glycan array binding signal (z-score) [18]: 0.837 | glycan array binding signal (z-score) [19]: 2.52 | glycan array binding signal (z-score) [20]: 2.25 | glycan array binding signal (z-score) [21]: 3.19 | glycan array binding signal (z-score) [22]: 1.81 | glycan array binding signal (z-score) [23]: 3.45 | glycan array binding signal (z-score) [24]: 3.07 | glycan array binding signal (z-score) [25]: 2.76 | glycan array binding signal (z-score) [26]: 4.63 | glycan array binding signal (z-score) [27]: 4.02 | glycan array binding signal (z-score) [28]: 3.79 | glycan array binding signal (z-score) [29]: 1.38 | glycan array binding signal (z-score) [30]: -0.286 | glycan array binding signal (z-score) [31]: -0.203 | glycan array binding signal (z-score) [32]: -0.281 | glycan array binding signal (z-score) [33]: -0.317 | glycan array binding signal (z-score) [34]: -0.291 | glycan array binding signal (z-score) (GlcNAc(b1-3)GalNAc): -0.287 | glycan array binding signal (z-score) (GlcNAc(b1-3)Man): -0.287 | glycan array binding signal (z-score) [35]: -0.329 | glycan array binding signal (z-score) [36]: -0.305 | glycan array binding signal (z-score) [37]: -0.331 | glycan array binding signal (z-score) [38]: -0.34 | glycan array binding signal (z-score) (GlcNAc(b1-4)GlcNAc): -0.336 | glycan array binding signal (z-score) [39]: -0.337
